Substitutions are numbered along the chain they refer to; changes in the protein carry UniProt numbers. The list shows a part of the results.
B1: UUCUGUG (DNA:RNA)
RNA: GGGAGACCGGAAUUCAGAUUGUCCUUCUGUGUUAAAUCCCGUCGUAGCCACCA
DNA 1: CAATCTGAATTCCGGTCTCCC
DNA 2: TGGTGGCTACGACGGGATT
B2: AGUCUCU (DNA:RNA)
RNA: GGGAGACCGGAAUUCAGAUUGUCCAGUCUCUUUAAAUCCCGUCGUAGCCACCA
DNA 1: CAATCTGAATTCCGGTCTCCC
DNA 2: TGGTGGCTACGACGGGATT
B3: CGUCAUU (DNA:RNA)
RNA: B2 RNA with A25C, U29A, C30U
DNA 1: CAATCTGAATTCCGGTCTCCC
DNA 2: TGGTGGCTACGACGGGATT
B4: UACAGUU (DNA:RNA)
RNA: B1 RNA with U26A, U28A, G31U
DNA 1: CAATCTGAATTCCGGTCTCCC
DNA 2: TGGTGGCTACGACGGGATT
B5: UUUAGCA (DNA:RNA)
RNA: B1 RNA with C27U, U28A, U30C, G31A
DNA 1: CAATCTGAATTCCGGTCTCCC
DNA 2: TGGTGGCTACGACGGGATT
B6: UGGCAUU (DNA:RNA)
RNA: B2 RNA with A25U, U27G, U29A, C30U
DNA 1: CAATCTGAATTCCGGTCTCCC
DNA 2: TGGTGGCTACGACGGGATT
B7: ACGGCAG (DNA:RNA)
RNA: B2 RNA with G26C, U27G, C28G, U29C, C30A, U31G
DNA 1: CAATCTGAATTCCGGTCTCCC
DNA 2: TGGTGGCTACGACGGGATT
B8: UAUUUGG (DNA:RNA)
RNA: B1 RNA with U26A, C27U, G29U, U30G
DNA 1: CAATCTGAATTCCGGTCTCCC
DNA 2: TGGTGGCTACGACGGGATT
B9: CACUACC (DNA:RNA)
RNA: B1 RNA with U25C, U26A, G29A, U30C, G31C
DNA 1: CAATCTGAATTCCGGTCTCCC
DNA 2: TGGTGGCTACGACGGGATT
B10: UUAAGCA (DNA:RNA)
RNA: B1 RNA with C27A, U28A, U30C, G31A
DNA 1: CAATCTGAATTCCGGTCTCCC
DNA 2: TGGTGGCTACGACGGGATT
B11: GCUACUA (DNA:RNA)
RNA: B2 RNA with A25G, G26C, C28A, U29C, C30U, U31A
DNA 1: CAATCTGAATTCCGGTCTCCC
DNA 2: TGGTGGCTACGACGGGATT
B12: AUAAGCU (DNA:RNA)
RNA: B2 RNA with G26U, U27A, C28A, U29G
DNA 1: CAATCTGAATTCCGGTCTCCC
DNA 2: TGGTGGCTACGACGGGATT
B13: UGCUAGC (DNA:RNA)
RNA: B1 RNA with U26G, G29A, U30G, G31C
DNA 1: CAATCTGAATTCCGGTCTCCC
DNA 2: TGGTGGCTACGACGGGATT
B14: ACCCGGC (DNA:RNA)
RNA: B2 RNA with G26C, U27C, U29G, C30G, U31C
DNA 1: CAATCTGAATTCCGGTCTCCC
DNA 2: TGGTGGCTACGACGGGATT
B15: CAUAGCA (DNA:RNA)
RNA: B2 RNA with A25C, G26A, C28A, U29G, U31A
DNA 1: CAATCTGAATTCCGGTCTCCC
DNA 2: TGGTGGCTACGACGGGATT
B16: AGUGGUC (DNA:RNA)
RNA: B2 RNA with C28G, U29G, C30U, U31C
DNA 1: CAATCTGAATTCCGGTCTCCC
DNA 2: TGGTGGCTACGACGGGATT
B17: GUGGAUC (DNA:RNA)
RNA: B1 RNA with U25G, C27G, U28G, G29A, G31C
DNA 1: CAATCTGAATTCCGGTCTCCC
DNA 2: TGGTGGCTACGACGGGATT
B18: CGCGUAU (DNA:RNA)
RNA: B2 RNA with A25C, U27C, C28G, C30A
DNA 1: CAATCTGAATTCCGGTCTCCC
DNA 2: TGGTGGCTACGACGGGATT
B19: UGUCGUA (DNA:RNA)
RNA: B2 RNA with A25U, U29G, C30U, U31A
DNA 1: CAATCTGAATTCCGGTCTCCC
DNA 2: TGGTGGCTACGACGGGATT
B20: CAGCUAC (DNA:RNA)
RNA: B2 RNA with A25C, G26A, U27G, C30A, U31C
DNA 1: CAATCTGAATTCCGGTCTCCC
DNA 2: TGGTGGCTACGACGGGATT
B21: CGUCGCG (DNA:RNA)
RNA: B2 RNA with A25C, U29G, U31G
DNA 1: CAATCTGAATTCCGGTCTCCC
DNA 2: TGGTGGCTACGACGGGATT
B22: UCUAACG (DNA:RNA)
RNA: B2 RNA with A25U, G26C, C28A, U29A, U31G
DNA 1: CAATCTGAATTCCGGTCTCCC
DNA 2: TGGTGGCTACGACGGGATT
B23: CUAAGGU (DNA:RNA)
RNA: B1 RNA with U25C, C27A, U28A, U30G, G31U
DNA 1: CAATCTGAATTCCGGTCTCCC
DNA 2: TGGTGGCTACGACGGGATT
B24: AGUACAU (DNA:RNA)
RNA: B2 RNA with C28A, U29C, C30A
DNA 1: CAATCTGAATTCCGGTCTCCC
DNA 2: TGGTGGCTACGACGGGATT
B25: AGUUAUA (DNA:RNA)
RNA: B2 RNA with C28U, U29A, C30U, U31A
DNA 1: CAATCTGAATTCCGGTCTCCC
DNA 2: TGGTGGCTACGACGGGATT
B26: UGACAAA (DNA:RNA)
RNA: B2 RNA with A25U, U27A, U29A, C30A, U31A
DNA 1: CAATCTGAATTCCGGTCTCCC
DNA 2: TGGTGGCTACGACGGGATT
B27: CCGUCUU (DNA:RNA)
RNA: B1 RNA with U25C, U26C, C27G, G29C, G31U
DNA 1: CAATCTGAATTCCGGTCTCCC
DNA 2: TGGTGGCTACGACGGGATT
B28: UGCCAAU (DNA:RNA)
RNA: B2 RNA with A25U, U27C, U29A, C30A
DNA 1: CAATCTGAATTCCGGTCTCCC
DNA 2: TGGTGGCTACGACGGGATT
B29: UUGCAUA (DNA:RNA)
RNA: B1 RNA with C27G, U28C, G29A, G31A
DNA 1: CAATCTGAATTCCGGTCTCCC
DNA 2: TGGTGGCTACGACGGGATT
B30: AAUUGGC (DNA:RNA)
RNA: B2 RNA with G26A, C28U, U29G, C30G, U31C
DNA 1: CAATCTGAATTCCGGTCTCCC
DNA 2: TGGTGGCTACGACGGGATT
B31: GGUAAAA (DNA:RNA)
RNA: B2 RNA with A25G, C28A, U29A, C30A, U31A
DNA 1: CAATCTGAATTCCGGTCTCCC
DNA 2: TGGTGGCTACGACGGGATT

The binders below were run against T1, RBFOX1 RRM (Homo sapiens, UniProt Q9NWB1 109-208) (assay: EMSA; HiTS-Eq, 1 nM pool, 10 min; buffer printed only for the single-RNA assays: 10 mM Tris pH 7.5, 150 mM NaCl, 3.4 mM EDTA, 0.001% NP-40, 30 C). Conditions: tags: His6 N-terminal (pET28a); label: 5' 32P.
T1 sequence: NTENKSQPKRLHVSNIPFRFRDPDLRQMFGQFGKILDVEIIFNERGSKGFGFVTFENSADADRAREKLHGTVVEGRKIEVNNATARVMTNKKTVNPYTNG
Procedure, shortened: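 These values rest on relative association constants, computed from read-count changes of each RNA species versus the control reaction and normalised to the cognate motif. Reads came from free RNA recovered by 8% native PAGE after purified RbFox RRM (wild type or mutant) at increasing concentrations was equilibrated for 10 min in 50 µL with 1 nM of a 5′-radiolabelled pool with 7 randomized nucleotides and DNA-annealed flanks.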

**Q.** B1 was tested. Which binding signal did it give?
**A.** 0.0272 KA relative to UGCAUGU

**Q.** B2 was tested. Which binding signal did it give?
**A.** 0.00785 KA relative to UGCAUGU

**Q.** Which binding signal does the source give for B3 here?
**A.** 0.0039 KA relative to UGCAUGU

**Q.** How did the binding signal turn out when B4 was run?
**A.** 0.00538 KA relative to UGCAUGU

**Q.** Which binding signal does the source give for B5 here?
**A.** 0.0109 KA relative to UGCAUGU

**Q.** For B6, which binding signal is on record?
**A.** 0.0198 KA relative to UGCAUGU

**Q.** Which binding signal does the source give for B7 here?
**A.** 0.0109 KA relative to UGCAUGU

**Q.** B8 was tested. Which binding signal did it give?
**A.** 0.0139 KA relative to UGCAUGU

**Q.** How did the binding signal turn out when B9 was run?
**A.** 0.00251 KA relative to UGCAUGU

**Q.** B10 was tested. Which binding signal did it give?
**A.** 0.00809 KA relative to UGCAUGU

**Q.** How did the binding signal turn out when B11 was run?
**A.** 0.00943 KA relative to UGCAUGU

**Q.** With B12 as the binder, how does the binding signal read?
**A.** 0.00275 KA relative to UGCAUGU

**Q.** Which binding signal does the source give for B13 here?
**A.** 0.0249 KA relative to UGCAUGU

**Q.** B14 was tested. Which binding signal did it give?
**A.** 0.00693 KA relative to UGCAUGU

**Q.** B15 was tested. Which binding signal did it give?
**A.** 0.00839 KA relative to UGCAUGU

**Q.** B16 was tested. Which binding signal did it give?
**A.** 0.0167 KA relative to UGCAUGU

**Q.** B17 was tested. Which binding signal did it give?
**A.** 0.0227 KA relative to UGCAUGU

**Q.** B18 was tested. Which binding signal did it give?
**A.** 0.00781 KA relative to UGCAUGU

**Q.** B19 was tested. Which binding signal did it give?
**A.** 0.0167 KA relative to UGCAUGU

**Q.** With B20 as the binder, how does the binding signal read?
**A.** 0.00539 KA relative to UGCAUGU

**Q.** How did the binding signal turn out when B21 was run?
**A.** 0.0116 KA relative to UGCAUGU

**Q.** Which binding signal does the source give for B22 here?
**A.** 0.00601 KA relative to UGCAUGU

**Q.** How did the binding signal turn out when B23 was run?
**A.** 0.0103 KA relative to UGCAUGU

**Q.** Which binding signal does the source give for B24 here?
**A.** 0.00291 KA relative to UGCAUGU

**Q.** Which binding signal does the source give for B25 here?
**A.** 0.00152 KA relative to UGCAUGU

**Q.** With B26 as the binder, how does the binding signal read?
**A.** 0.00629 KA relative to UGCAUGU

**Q.** For B27, which binding signal is on record?
**A.** 0.0138 KA relative to UGCAUGU

**Q.** With B28 as the binder, how does the binding signal read?
**A.** 0.0121 KA relative to UGCAUGU

**Q.** For B29, which binding signal is on record?
**A.** 0.0139 KA relative to UGCAUGU

**Q.** Which binding signal does the source give for B30 here?
**A.** 0.00892 KA relative to UGCAUGU

**Q.** How did the binding signal turn out when B31 was run?
**A.** 0.0023 KA relative to UGCAUGU

Source: article PMC9911399, “Two distinct binding modes provide the RNA-binding protein RbFox with extraordinary sequence specificity”
